Measurements from the supplement of paper PMC12217912.
Some of the results follow. The full chains were built here from the parent and the listed change. Inactive controls read about 0.05.

B1: TEV protease; numbered along this chain (parent)
chain: MGESLFKGPRDYNPISSSICHLTNESDGHTTSLYGIGFGPFIITNKHLFRRNNGTLVVQSLHGVFKVKDTTTLQQHLVDGRDMIIIRMPKDFPPFPQKLKFREPQREERICLVTTNFQTKSMSSMVSDTSCTFPSGDGIFWKHWIQTKDGQCGSPLVSTRDGFIVGIHSASNFTNTNNYFTSVPKNFMELLTNQEAQQWVSGWRLNADSVLWGGHKVFMVKPEEPFQPVKEATQL

Variants of: B1
Assay: raw area under fraction-flipped curve 0-4 h after induction (AUC4h, not background-subtracted), DNA-recorder readout of cleavage of the substrate (dimensionless); higher = more cleavage of the substrate by the protease variant
Conditions: temperature: 34 °C; time window: 0-4 h after rhamnose induction
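Further: Bxb1 expression induced with 0.2% (w/v) L-rhamnose at OD600 near 0.5, cultures sampled hourly, flipped fraction per protease–substrate barcode pair counted by paired-end Illumina sequencing.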

Variant | area with substrate ENLCFQS | area with substrate ENLDFQS | area with substrate ENLEFQS | area with substrate ENLFFQS | area with substrate ENLGFQS | area with substrate ENLHFQS | area with substrate ENLIFQS | area with substrate ENLKFQS | area with substrate ENLLFQS | area with substrate ENLMFQS | area with substrate ENLNFQS | area with substrate ENLPFQS | area with substrate ENLQFQS | area with substrate ENLRFQS | area with substrate ENLSFQS | area with substrate ENLTFQS | area with substrate ENLVFQS | area with substrate ENLWFQS
E223L | 0.0722 | 0.0638 | 0.067 | 0.0806 | 0.0778 | 0.0658 | 0.131 | 0.0824 | 0.0798 | 0.0825 | 0.0618 | 0.063 | 0.0731 | 0.0844 | 0.0581 | 0.0565 | 0.0837 | 
A232Q | 0.0615 | 0.0541 |  | 0.0901 | 0.0639 |  | 0.0833 | 0.124 |  | 0.0927 | 0.0752 | 0.0806 | 0.0787 |  | 0.0618 |  | 0.0974 | 0.0825
Q234G | 0.0765 | 0.0643 | 0.0636 | 0.093 |  | 0.0344 | 0.0822 | 0.0776 | 0.0854 |  | 0.0365 | 0.065 | 0.071 | 0.0744 | 0.0981 |  | 0.108 | 
L235H | 0.0907 | 0.0623 |  |  |  |  |  | 0.0788 | 0.079 |  | 0.0694 | 0.0646 |  |  | 0.0641 |  |  | 0.0736
G8C |  | 0.0544 |  | 0.0853 |  |  |  |  |  |  | 0.0576 |  |  | 0.0624 |  |  |  | 
G8N |  | 0.0559 |  | 0.0838 |  | 0.0698 | 0.0924 | 0.0646 |  |  | 0.0634 | 0.0413 |  |  | 0.053 |  | 0.104 | 0.0752
P9Q |  | 0.0564 |  | 0.0929 |  |  |  | 0.0927 |  |  | 0.0626 | 0.0384 |  |  | 0.0679 |  |  | 
S16F |  | 0.0602 |  | 0.0689 | 0.0406 | 0.0684 | 0.0863 | 0.0665 | 0.0829 |  | 0.0766 | 0.0556 | 0.0777 |  | 0.0632 | 0.0676 |  | 0.058
S18M |  | 0.0778 | 0.0655 |  |  |  | 0.0762 | 0.0442 |  |  | 0.069 | 0.0576 |  |  | 0.0691 |  | 0.0749 | 0.0761
S18N |  | 0.0697 | 0.0579 | 0.103 | 0.0618 | 0.0556 | 0.0933 | 0.0752 | 0.0688 |  | 0.0735 |  |  |  | 0.0741 |  |  | 0.0771
H29F |  | 0.0577 | 0.0741 | 0.0702 | 0.0698 | 0.0976 |  |  | 0.081 | 0.0427 | 0.0578 | 0.0595 |  | 0.0795 | 0.0558 |  |  | 0.0607
S32C |  | 0.0595 | 0.0623 | 0.0908 | 0.0677 | 0.0668 | 0.0898 | 0.0854 |  | 0.0764 | 0.0593 | 0.0538 | 0.0717 | 0.0697 | 0.068 |  | 0.0798 | 
Y34L |  | 0.079 | 0.0505 | 0.0597 |  | 0.0641 |  |  | 0.0667 |  |  | 0.0695 |  | 0.0693 |  | 0.0581 |  | 
G35K |  | 0.0546 |  |  |  |  |  | 0.0442 |  |  |  |  |  |  |  |  |  | 0.032
K46N |  | 0.0556 |  | 0.0468 |  |  |  |  | 0.0742 |  |  |  | 0.0687 | 0.064 | 0.0602 |  |  | 
L48Y |  | 0.0586 | 0.0468 | 0.064 | 0.0611 |  | 0.0637 | 0.0588 |  | 0.0554 |  |  | 0.0682 |  |  |  |  | 
T55Q |  | 0.0523 |  | 0.0673 | 0.061 | 0.0691 | 0.0744 | 0.0769 |  | 0.0794 |  | 0.0696 |  |  | 0.0619 |  | 0.0956 | 0.0681
L56K |  | 0.0606 | 0.0464 | 0.0508 |  |  |  | 0.0534 | 0.0424 | 0.0316 | 0.0544 | 0.0414 |  | 0.0241 | 0.0441 |  |  | 0.0486
V58P |  | 0.0285 |  |  |  |  |  |  |  |  | 0.0262 |  | 0.0308 |  |  |  |  | 

Variant | area with substrate ENLCFQS | area with substrate ENLDFQS | area with substrate ENLEFQS | area with substrate ENLFFQS | area with substrate ENLGFQS | area with substrate ENLHFQS | area with substrate ENLIFQS | area with substrate ENLKFQS | area with substrate ENLLFQS | area with substrate ENLMFQS | area with substrate ENLNFQS | area with substrate ENLPFQS | area with substrate ENLQFQS | area with substrate ENLRFQS | area with substrate ENLSFQS | area with substrate ENLTFQS | area with substrate ENLVFQS | area with substrate ENLWFQS
H62K |  | 0.0463 |  | 0.0734 | 0.0462 | 0.0515 | 0.123 | 0.0801 | 0.0722 |  | 0.086 |  | 0.138 |  |  |  | 0.0805 | 
V64E |  | 0.0649 | 0.048 |  |  |  |  | 0.081 |  |  | 0.0621 | 0.0323 |  |  |  |  |  | 
V64Y |  | 0.0439 |  | 0.112 | 0.0661 | 0.117 |  |  | 0.06 | 0.0803 | 0.038 |  |  |  | 0.0837 |  |  | 
D69G |  | 0.0639 | 0.0626 | 0.0709 |  |  |  | 0.0579 | 0.0692 | 0.0746 |  | 0.0645 | 0.053 |  | 0.0586 |  |  | 0.0614
T72E |  | 0.0703 | 0.0605 | 0.0809 |  |  |  |  |  | 0.0693 | 0.0708 |  |  |  |  |  |  | 
T72Q |  | 0.0649 |  | 0.0922 | 0.0628 | 0.0645 |  | 0.0843 |  |  | 0.0741 |  |  | 0.0613 |  |  | 0.0831 | 
L73V |  | 0.0663 | 0.0535 | 0.0722 | 0.0579 | 0.0726 |  | 0.0681 |  |  | 0.0703 | 0.0582 | 0.0542 | 0.061 |  |  | 0.0708 | 0.0298
Q74S |  | 0.0564 |  | 0.0858 |  | 0.0607 |  |  | 0.0751 |  |  |  | 0.0597 | 0.0719 | 0.059 |  |  | 0.0697
Q75N |  | 0.0636 |  | 0.0635 | 0.066 |  | 0.0642 | 0.053 | 0.0565 |  |  |  |  |  | 0.0649 |  |  | 
G80W |  | 0.0593 | 0.0657 | 0.103 |  | 0.0649 | 0.0839 | 0.0712 | 0.0636 |  | 0.0683 | 0.0537 |  | 0.0689 | 0.0636 |  |  | 
M83F |  | 0.0589 |  | 0.0551 | 0.0848 |  |  | 0.0777 |  |  | 0.0512 |  | 0.0634 |  | 0.0621 |  | 0.0696 | 0.0552
P104R |  | 0.0453 |  | 0.0652 |  |  | 0.0545 | 0.0497 | 0.0425 | 0.0292 | 0.0517 | 0.0567 |  | 0.0503 | 0.0629 |  |  | 
R106P |  | 0.0701 |  |  |  | 0.0695 | 0.0713 | 0.0756 |  |  | 0.0762 |  |  | 0.0761 |  |  |  | 
T119E |  | 0.0774 |  |  |  |  |  | 0.0876 |  |  |  | 0.0336 |  |  | 0.053 | 0.0553 |  | 
T119F |  | 0.068 |  | 0.106 |  |  |  |  |  | 0.0641 |  |  | 0.0866 |  |  |  | 0.0791 | 
K120A |  | 0.0577 |  | 0.0838 |  | 0.0716 |  |  | 0.0714 | 0.0669 | 0.0691 | 0.0649 |  | 0.051 | 0.0208 |  |  | 
K120C |  | 0.0778 | 0.0596 | 0.0856 | 0.0687 | 0.0585 |  | 0.0809 | 0.0725 | 0.0788 | 0.0664 | 0.0703 |  |  |  | 0.0866 | 0.102 | 
K120V |  | 0.0444 | 0.0685 | 0.0959 |  | 0.0631 |  | 0.0713 | 0.0563 |  | 0.0625 | 0.0688 | 0.0659 | 0.0703 | 0.0735 |  | 0.0873 | 
